In the supplement of paper PMC8728848:
This is one part of the list.

Tests used:
Experiment in all cases: glycan array binding signal (z-score within array); higher = stronger binding
Settings in all cases: glycan notation: IUPAC condensed, linker removed
[1] = target: GlcNAc(b1-2)Gal(b1-3)GalNAc
Outline: (§1)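 Glycan array data came from 3228 arrays in the Consortium for Functional Glycomics database, and only arrays with an available protein sequence were kept. Glycan names were put into IUPAC-condensed notation, and columns mapping to the same glycan were averaged. The binding signal is a within-array Z-score, averaged across arrays of one protein sequence run at different concentrations or buffers and across linkers. A negative Z-score can be read as non-binding.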

[2] = target: GlcNAc(b1-2)Man(a1-3)[GlcNAc(b1-2)Man(a1-6)]Man(b1-4)GlcNAc(b1-4)GlcNAc
Outline: as §1

[3] = target: GlcNAc(b1-2)Man(a1-3)[GlcNAc(b1-2)Man(a1-6)]Man(b1-4)GlcNAc(b1-4)[Fuc(a1-6)]GlcNAc
Outline: as §1

[4] = target: GlcNAc(b1-2)Man(a1-3)[GlcNAc(b1-4)][GlcNAc(b1-2)Man(a1-6)]Man(b1-4)GlcNAc(b1-4)GlcNAc
Outline: as §1

[5] = target: GlcNAc(b1-2)Man(a1-3)[GlcNAc(b1-4)][GlcNAc(b1-2)Man(a1-6)]Man(b1-4)GlcNAc(b1-4)[Fuc(a1-6)]GlcNAc
Outline: as §1

[6] = target: GlcNAc(b1-2)[GlcNAc(b1-4)]Man(a1-3)[GlcNAc(b1-2)Man(a1-6)]Man(b1-4)GlcNAc(b1-4)GlcNAc
Outline: as §1

[7] = target: GlcNAc(b1-2)[GlcNAc(b1-4)]Man(a1-3)[GlcNAc(b1-4)][GlcNAc(b1-2)Man(a1-6)]Man(b1-4)GlcNAc(b1-4)GlcNAc
Outline: as §1

[8] = target: GlcNAc(b1-2)[GlcNAc(b1-4)]Man(a1-3)[GlcNAc(b1-4)][GlcNAc(b1-2)[GlcNAc(b1-6)]Man(a1-6)]Man(b1-4)GlcNAc(b1-4)GlcNAc
Outline: as §1

[9] = target: GlcNAc(b1-2)[GlcNAc(b1-4)]Man(a1-3)[GlcNAc(b1-4)][GlcNAc(b1-2)[GlcNAc(b1-6)]Man(a1-6)]Man(b1-4)GlcNAc(b1-4)[Fuc(a1-6)]GlcNAc
Outline: as §1

[10] = target: GlcNAc(b1-2)[GlcNAc(b1-6)]Man(a1-6)[GlcNAc(b1-2)Man(a1-3)]Man(b1-4)GlcNAc(b1-4)GlcNAc
Outline: as §1

[11] = target: GlcNAc(b1-2)[GlcNAc(b1-6)]Man(a1-6)[GlcNAc(b1-2)Man(a1-3)]Man(b1-4)GlcNAc(b1-4)[Fuc(a1-6)]GlcNAc
Outline: as §1

[12] = target: GlcNAc(b1-2)[GlcNAc(b1-6)]Man(a1-6)[GlcNAc(b1-4)][GlcNAc(b1-2)Man(a1-3)]Man(b1-4)GlcNAc(b1-4)GlcNAc
Outline: as §1

GlcNAc(b1-3)Fuc = target: GlcNAc(b1-3)Fuc
Outline: as §1

GlcNAc(b1-3)Gal = target: GlcNAc(b1-3)Gal
Outline: as §1

[13] = target: GlcNAc(b1-3)Gal(b1-3)GalNAc
Outline: as §1

GlcNAc(b1-3)Gal(b1-4)Glc = target: GlcNAc(b1-3)Gal(b1-4)Glc
Outline: as §1

[14] = target: GlcNAc(b1-3)Gal(b1-4)GlcNAc
Outline: as §1

[15] = target: GlcNAc(b1-3)Gal(b1-4)GlcNAc(b1-2)Man(a1-3)[GlcNAc(b1-3)Gal(b1-4)GlcNAc(b1-2)Man(a1-6)]Man(b1-4)GlcNAc(b1-4)GlcNAc
Outline: as §1

[16] = target: GlcNAc(b1-3)Gal(b1-4)GlcNAc(b1-2)Man(a1-3)[GlcNAc(b1-3)Gal(b1-4)GlcNAc(b1-2)Man(a1-6)]Man(b1-4)GlcNAc(b1-4)[Fuc(a1-6)]GlcNAc
Outline: as §1

[17] = target: GlcNAc(b1-3)Gal(b1-4)GlcNAc(b1-2)[GlcNAc(b1-3)Gal(b1-4)GlcNAc(b1-6)]Man(a1-6)[GlcNAc(b1-3)Gal(b1-4)GlcNAc(b1-2)Man(a1-3)]Man(b1-4)GlcNAc(b1-4)GlcNAc
Outline: as §1

[18] = target: GlcNAc(b1-3)Gal(b1-4)GlcNAc(b1-3)Gal(b1-4)GlcNAc
Outline: as §1

[19] = target: GlcNAc(b1-3)Gal(b1-4)GlcNAc(b1-3)Gal(b1-4)GlcNAc(b1-2)Man(a1-3)[GlcNAc(b1-3)Gal(b1-4)GlcNAc(b1-3)Gal(b1-4)GlcNAc(b1-2)Man(a1-6)]Man(b1-4)GlcNAc(b1-4)GlcNAc
Outline: as §1

[20] = target: GlcNAc(b1-3)Gal(b1-4)GlcNAc(b1-3)Gal(b1-4)GlcNAc(b1-2)Man(a1-3)[GlcNAc(b1-3)Gal(b1-4)GlcNAc(b1-3)Gal(b1-4)GlcNAc(b1-2)Man(a1-6)]Man(b1-4)GlcNAc(b1-4)[Fuc(a1-6)]GlcNAc
Outline: as §1

[21] = target: GlcNAc(b1-3)Gal(b1-4)GlcNAc(b1-3)Gal(b1-4)GlcNAc(b1-2)[GlcNAc(b1-3)Gal(b1-4)GlcNAc(b1-3)Gal(b1-4)GlcNAc(b1-6)]Man(a1-6)[GlcNAc(b1-3)Gal(b1-4)GlcNAc(b1-3)Gal(b1-4)GlcNAc(b1-2)Man(a1-3)]Man(b1-4)GlcNAc(b1-4)[Fuc(a1-6)]GlcNAc
Outline: as §1

[22] = target: GlcNAc(b1-3)Gal(b1-4)GlcNAc(b1-3)Gal(b1-4)GlcNAc(b1-3)Gal(b1-4)GlcNAc(b1-2)Man(a1-3)[GlcNAc(b1-3)Gal(b1-4)GlcNAc(b1-3)Gal(b1-4)GlcNAc(b1-3)Gal(b1-4)GlcNAc(b1-2)Man(a1-6)]Man(b1-4)GlcNAc(b1-4)GlcNAc
Outline: as §1

[23] = target: GlcNAc(b1-3)Gal(b1-4)GlcNAc(b1-3)Gal(b1-4)GlcNAc(b1-3)Gal(b1-4)GlcNAc(b1-2)Man(a1-3)[GlcNAc(b1-3)Gal(b1-4)GlcNAc(b1-3)Gal(b1-4)GlcNAc(b1-3)Gal(b1-4)GlcNAc(b1-2)Man(a1-6)]Man(b1-4)GlcNAc(b1-4)[Fuc(a1-6)]GlcNAc
Outline: as §1

[24] = target: GlcNAc(b1-3)Gal(b1-4)GlcNAc(b1-3)Gal(b1-4)GlcNAc(b1-3)Gal(b1-4)GlcNAc(b1-2)[GlcNAc(b1-3)Gal(b1-4)GlcNAc(b1-3)Gal(b1-4)GlcNAc(b1-3)Gal(b1-4)GlcNAc(b1-6)]Man(a1-6)[GlcNAc(b1-3)Gal(b1-4)GlcNAc(b1-3)Gal(b1-4)GlcNAc(b1-3)Gal(b1-4)GlcNAc(b1-2)Man(a1-3)]Man(b1-4)GlcNAc(b1-4)[Fuc(a1-6)]GlcNAc
Outline: as §1

[25] = target: GlcNAc(b1-3)Gal(b1-4)GlcNAc(b1-3)Gal(b1-4)GlcNAc(b1-3)Gal(b1-4)GlcNAc(b1-3)Gal(b1-4)GlcNAc(b1-2)Man(a1-3)[GlcNAc(b1-3)Gal(b1-4)GlcNAc(b1-3)Gal(b1-4)GlcNAc(b1-3)Gal(b1-4)GlcNAc(b1-3)Gal(b1-4)GlcNAc(b1-2)Man(a1-6)]Man(b1-4)GlcNAc(b1-4)GlcNAc
Outline: as §1

[26] = target: GlcNAc(b1-3)Gal(b1-4)GlcNAc(b1-3)Gal(b1-4)GlcNAc(b1-3)Gal(b1-4)GlcNAc(b1-3)Gal(b1-4)GlcNAc(b1-2)Man(a1-3)[GlcNAc(b1-3)Gal(b1-4)GlcNAc(b1-3)Gal(b1-4)GlcNAc(b1-3)Gal(b1-4)GlcNAc(b1-3)Gal(b1-4)GlcNAc(b1-2)Man(a1-6)]Man(b1-4)GlcNAc(b1-4)[Fuc(a1-6)]GlcNAc
Outline: as §1

[27] = target: GlcNAc(b1-3)Gal(b1-4)GlcNAc(b1-3)Gal(b1-4)GlcNAc(b1-3)Gal(b1-4)GlcNAc(b1-3)Gal(b1-4)GlcNAc(b1-2)[GlcNAc(b1-3)Gal(b1-4)GlcNAc(b1-3)Gal(b1-4)GlcNAc(b1-3)Gal(b1-4)GlcNAc(b1-3)Gal(b1-4)GlcNAc(b1-6)]Man(a1-6)[GlcNAc(b1-3)Gal(b1-4)GlcNAc(b1-3)Gal(b1-4)GlcNAc(b1-3)Gal(b1-4)GlcNAc(b1-3)Gal(b1-4)GlcNAc(b1-2)Man(a1-3)]Man(b1-4)GlcNAc(b1-4)[Fuc(a1-6)]GlcNAc
Outline: as §1

[28] = target: GlcNAc(b1-3)Gal(b1-4)GlcNAc(b1-3)Gal(b1-4)GlcNAc(b1-3)GalNAc
Outline: as §1

[29] = target: GlcNAc(b1-3)Gal(b1-4)GlcNAc(b1-3)GalNAc
Outline: as §1

[30] = target: GlcNAc(b1-3)Gal(b1-4)GlcNAc(b1-3)[GlcNAc(b1-3)Gal(b1-4)GlcNAc(b1-3)]GalNAc
Outline: as §1

[31] = target: GlcNAc(b1-3)Gal(b1-4)GlcNAc(b1-6)[Gal(b1-3)]GalNAc
Outline: as §1

[32] = target: GlcNAc(b1-3)Gal(b1-4)GlcNAc(b1-6)[GlcNAc(b1-3)Gal(b1-3)]GalNAc
Outline: as §1

[33] = target: GlcNAc(b1-3)Gal(b1-4)GlcNAc(b1-6)[GlcNAc(b1-3)]Gal(b1-4)GlcNAc
Outline: as §1

GlcNAc(b1-3)GalNAc = target: GlcNAc(b1-3)GalNAc
Outline: as §1

GlcNAc(b1-3)Man = target: GlcNAc(b1-3)Man
Outline: as §1

[34] = target: GlcNAc(b1-3)[GlcNAc(b1-4)][GlcNAc(b1-6)]GlcNAc
Outline: as §1

[35] = target: GlcNAc(b1-3)[GlcNAc(b1-6)]Gal(b1-4)GlcNAc
Outline: as §1

[36] = target: GlcNAc(b1-3)[GlcNAc(b1-6)]GalNAc
Outline: as §1

[37] = target: GlcNAc(b1-4)Gal(b1-4)GlcNAc
Outline: as §1

GlcNAc(b1-4)GlcNAc = target: GlcNAc(b1-4)GlcNAc
Outline: as §1

[38] = target: GlcNAc(b1-4)GlcNAc(b1-4)GlcNAc
Outline: as §1

[39] = target: GlcNAc(b1-4)GlcNAc(b1-4)GlcNAc(b1-4)GlcNAc(b1-4)GlcNAc
Outline: as §1

B1: DrGRIFIN (Danio rerio), Q6DGJ1 (protein)
chain: MTLRFEASCPDGLCPGWSVILKGETPPEASKFEINFLCDRDDRVAFHFNPRFTESDIICNSYMANRWGQEERCNHFPLGVEEPFQIEIYSDNDHFHVYIDKAKVMQYKHRVEDLKTITKLQVVNDVKISSLEITKKLFY
glycan array binding signal (z-score) [1]: -0.195
glycan array binding signal (z-score) [2]: -0.183
glycan array binding signal (z-score) [3]: -0.163
glycan array binding signal (z-score) [4]: -0.095
glycan array binding signal (z-score) [5]: -0.167
glycan array binding signal (z-score) [6]: -0.168
glycan array binding signal (z-score) [7]: -0.215
glycan array binding signal (z-score) [8]: -0.165
glycan array binding signal (z-score) [9]: -0.159
glycan array binding signal (z-score) [10]: -0.108
glycan array binding signal (z-score) [11]: -0.077
glycan array binding signal (z-score) [12]: -0.239
glycan array binding signal (z-score) (GlcNAc(b1-3)Fuc): -0.197
glycan array binding signal (z-score) (GlcNAc(b1-3)Gal): -0.08
glycan array binding signal (z-score) [13]: -0.171
glycan array binding signal (z-score) (GlcNAc(b1-3)Gal(b1-4)Glc): -0.171
glycan array binding signal (z-score) [14]: -0.153
glycan array binding signal (z-score) [15]: -0.132
glycan array binding signal (z-score) [16]: -0.163
glycan array binding signal (z-score) [17]: -0.182
glycan array binding signal (z-score) [18]: -0.181
glycan array binding signal (z-score) [19]: -0.14
glycan array binding signal (z-score) [20]: -0.169
glycan array binding signal (z-score) [21]: -0.18
glycan array binding signal (z-score) [22]: -0.159
glycan array binding signal (z-score) [23]: -0.221
glycan array binding signal (z-score) [24]: -0.163
glycan array binding signal (z-score) [25]: -0.138
glycan array binding signal (z-score) [26]: -0.206
glycan array binding signal (z-score) [27]: -0.149
glycan array binding signal (z-score) [28]: -0.2
glycan array binding signal (z-score) [29]: -0.078
glycan array binding signal (z-score) [30]: -0.215
glycan array binding signal (z-score) [31]: -0.176
glycan array binding signal (z-score) [32]: -0.174
glycan array binding signal (z-score) [33]: -0.16
glycan array binding signal (z-score) (GlcNAc(b1-3)GalNAc): -0.068
glycan array binding signal (z-score) (GlcNAc(b1-3)Man): -0.162
glycan array binding signal (z-score) [34]: -0.101
glycan array binding signal (z-score) [35]: -0.205
glycan array binding signal (z-score) [36]: -0.174
glycan array binding signal (z-score) [37]: -0.166
glycan array binding signal (z-score) (GlcNAc(b1-4)GlcNAc): -0.135
glycan array binding signal (z-score) [38]: -0.214
glycan array binding signal (z-score) [39]: -0.193
